For test [1], the target named is GST-Sirt1 3D mutant (C terminus), aa 511 to 747 (human) (UniProt Q96EB6). As to the kind of experiment: pull-down; GST pull-down: GST-Sirt1 C terminus (WT or mutants) purified from E. coli incubated with lysates of HEK293T cells transfected with GFP-Sirt1 core domain; bound fraction immunoblotted; only the target purified.
Test [2] deals with GST-Sirt1 C terminus 3D mutant with ESA deletion, aa 511 to 747 (human) (UniProt Q96EB6). Described as above.
Test [3] concerns the target GST-Sirt1 C terminus ESA deletion mutant, aa 511 to 747 (human) (UniProt Q96EB6). The test is described as above.
Test [4] addresses GST-Sirt1 WT (C terminus), aa 511 to 747 (human) (UniProt Q96EB6). The test is described as above.
For test [5], the target named is FLAG-Sirt1 C terminus (WT), aa 511 to 747 (human) (UniProt Q96EB6). As to the kind of experiment: co-IP; HEK293T cotransfected with FLAG-Sirt1 C terminus (WT or mutants) and HA-tagged core domain; lysates immunoprecipitated with anti-FLAG, immunoblot; lysis buffer 50 mM Tris-HCl pH 7.5, 120 mM NaCl, 0.2% NP-40, 1 mM EDTA, 1 mM DTT. (A western blot detects proteins with antibodies after separation by electrophoresis.)

Sequences of proteins named here, by UniProt entry; tags and fusion partners are left off. A change or cut given only in a name is not applied to a line headed by its entry. A line that says so, or that is headed by a name, gives the form on record, which may keep a tag or linker. Residues count along the entry.
HA-tagged Sirt1 core domain, aa 234 to 510 (Q96EB6, residues 234-510): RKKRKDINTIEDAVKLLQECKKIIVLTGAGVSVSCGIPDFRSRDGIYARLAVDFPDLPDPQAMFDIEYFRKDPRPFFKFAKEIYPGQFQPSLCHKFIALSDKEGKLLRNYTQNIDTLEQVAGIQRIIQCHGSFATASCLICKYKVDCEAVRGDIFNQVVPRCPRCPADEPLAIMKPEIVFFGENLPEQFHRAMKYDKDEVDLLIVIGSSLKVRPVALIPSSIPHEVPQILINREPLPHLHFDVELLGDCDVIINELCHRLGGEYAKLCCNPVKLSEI
FLAG-Sirt1 C terminus (WT), aa 511 to 747 (Q96EB6, residues 511-747): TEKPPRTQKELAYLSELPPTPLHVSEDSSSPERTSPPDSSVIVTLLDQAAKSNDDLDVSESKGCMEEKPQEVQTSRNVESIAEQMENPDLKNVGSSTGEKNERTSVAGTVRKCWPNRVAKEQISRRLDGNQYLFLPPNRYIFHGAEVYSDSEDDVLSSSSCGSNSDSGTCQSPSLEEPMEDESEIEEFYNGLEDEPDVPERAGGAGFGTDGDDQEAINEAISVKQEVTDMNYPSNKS
FLAG-Sirt1 C terminus 3D mutant, aa 511 to 747 (Q96EB6, form named): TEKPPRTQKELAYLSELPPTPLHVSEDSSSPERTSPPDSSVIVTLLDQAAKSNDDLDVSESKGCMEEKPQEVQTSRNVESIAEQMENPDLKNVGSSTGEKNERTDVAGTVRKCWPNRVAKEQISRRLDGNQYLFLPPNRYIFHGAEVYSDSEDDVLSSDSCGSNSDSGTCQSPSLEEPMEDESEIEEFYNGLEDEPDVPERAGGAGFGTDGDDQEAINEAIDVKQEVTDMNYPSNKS
FLAG-Sirt1 C terminus 3D mutant with ESA deletion (3D ΔESA), aa 511 to 747 (Q96EB6, form named): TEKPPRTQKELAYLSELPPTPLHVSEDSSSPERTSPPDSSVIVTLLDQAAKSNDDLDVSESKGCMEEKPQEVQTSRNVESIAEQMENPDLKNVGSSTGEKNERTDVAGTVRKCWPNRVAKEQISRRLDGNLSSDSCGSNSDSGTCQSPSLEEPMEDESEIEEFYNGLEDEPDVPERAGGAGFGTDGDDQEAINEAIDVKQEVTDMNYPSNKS
FLAG-Sirt1 C terminus ESA deletion mutant (WT ΔESA), aa 511 to 747 (Q96EB6, form named): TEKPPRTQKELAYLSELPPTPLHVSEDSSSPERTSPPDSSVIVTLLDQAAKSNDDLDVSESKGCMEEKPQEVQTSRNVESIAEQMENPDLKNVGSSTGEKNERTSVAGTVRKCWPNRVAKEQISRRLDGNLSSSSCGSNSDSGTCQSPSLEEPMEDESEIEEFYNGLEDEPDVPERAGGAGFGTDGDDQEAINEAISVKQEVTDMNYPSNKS
FLAG-Sirt1 C terminus 3A mutant, aa 511 to 747 (Q96EB6, form named): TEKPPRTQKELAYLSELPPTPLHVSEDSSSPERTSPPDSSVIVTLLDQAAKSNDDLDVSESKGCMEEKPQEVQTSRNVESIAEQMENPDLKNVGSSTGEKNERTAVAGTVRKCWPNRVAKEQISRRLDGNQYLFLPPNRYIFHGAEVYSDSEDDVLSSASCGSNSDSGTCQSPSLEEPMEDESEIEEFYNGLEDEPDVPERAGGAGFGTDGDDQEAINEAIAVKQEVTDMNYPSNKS

In test [6] the target is FLAG-Sirt1 C terminus 3A mutant, aa 511 to 747 (human) (UniProt Q96EB6). The test is described as above.
The target in test [7] is FLAG-Sirt1 C terminus 3D mutant with ESA deletion (3D ΔESA), aa 511 to 747 (human) (UniProt Q96EB6). Described as above.
Test [8] addresses FLAG-Sirt1 C terminus 3D mutant, aa 511 to 747 (human) (UniProt Q96EB6). The test is described as above.
The target in test [9] is FLAG-Sirt1 C terminus ESA deletion mutant (WT ΔESA), aa 511 to 747 (human) (UniProt Q96EB6). The description is as above.
For test [10], the target named is T1, Sirt1, endogenous in C2C12 myotubes (mouse (endogenous in C2C12)) (UniProt Q923E4).
T1 sequence: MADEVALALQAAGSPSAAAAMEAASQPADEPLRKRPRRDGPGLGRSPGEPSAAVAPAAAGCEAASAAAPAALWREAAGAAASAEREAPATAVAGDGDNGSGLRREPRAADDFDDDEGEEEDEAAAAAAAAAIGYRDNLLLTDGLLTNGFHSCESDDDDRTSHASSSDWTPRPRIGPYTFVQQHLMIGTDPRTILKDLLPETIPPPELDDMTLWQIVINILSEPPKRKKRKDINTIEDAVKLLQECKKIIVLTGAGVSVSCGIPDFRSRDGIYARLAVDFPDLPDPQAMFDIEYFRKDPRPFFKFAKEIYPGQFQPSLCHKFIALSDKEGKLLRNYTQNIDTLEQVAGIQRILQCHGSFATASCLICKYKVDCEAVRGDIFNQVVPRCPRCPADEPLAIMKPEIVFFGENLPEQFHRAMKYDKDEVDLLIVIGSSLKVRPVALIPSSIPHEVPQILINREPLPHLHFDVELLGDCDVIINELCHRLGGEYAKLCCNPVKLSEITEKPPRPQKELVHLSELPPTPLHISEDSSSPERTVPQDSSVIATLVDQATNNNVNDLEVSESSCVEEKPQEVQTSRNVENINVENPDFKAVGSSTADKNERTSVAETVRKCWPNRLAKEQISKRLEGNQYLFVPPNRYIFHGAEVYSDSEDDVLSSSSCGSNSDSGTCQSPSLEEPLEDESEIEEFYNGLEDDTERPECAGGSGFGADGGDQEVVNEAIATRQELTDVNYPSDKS
As to the kind of experiment: co-IP; C2C12 myotubes, with or without 25 uM resveratrol for 6 h; lysates immunoprecipitated with antibody against Sirt1, immunoblot with anti-LKB1.

A further test addresses T2, FLAG-LKB1 (UniProt Q15831).
T2 sequence: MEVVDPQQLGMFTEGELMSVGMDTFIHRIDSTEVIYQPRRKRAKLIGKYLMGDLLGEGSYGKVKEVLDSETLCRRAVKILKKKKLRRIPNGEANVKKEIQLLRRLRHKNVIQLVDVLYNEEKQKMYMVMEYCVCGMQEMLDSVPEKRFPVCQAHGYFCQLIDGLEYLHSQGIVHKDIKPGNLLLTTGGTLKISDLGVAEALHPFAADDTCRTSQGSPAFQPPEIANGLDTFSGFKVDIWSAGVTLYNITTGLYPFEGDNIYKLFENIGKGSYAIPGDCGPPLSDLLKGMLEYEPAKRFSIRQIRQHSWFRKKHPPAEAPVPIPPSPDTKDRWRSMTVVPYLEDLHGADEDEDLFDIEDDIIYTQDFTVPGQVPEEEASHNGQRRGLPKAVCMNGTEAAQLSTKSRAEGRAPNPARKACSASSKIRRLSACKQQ
Nature of the test: co-IP; HEK293T transfected with FLAG-LKB1 plasmid, treated with 25 uM resveratrol for 6 h; immunoprecipitated by anti-FLAG and eluted with 3xFLAG peptide; bound fraction blotted with anti-STRADα and anti-MO25α.

Results on five molecules are retold here after publication PMC8326426, “Resveratrol-induced Sirt1 phosphorylation by LKB1 mediates mitochondrial metabolism” (The Journal of Biological Chemistry, 2021).

No constants are given. Whether binding was seen depends on the method and setting. Binding seen in cells or lysates may run through a third protein. Some results given as binding are weak or reduced against the parent protein; the word gives no strength. For part of these data: Sequences can lack the tags named with a protein.

As to “GFP-Sirt1 core domain, aa 234 to 510 (from UniProt Q96EB6 234-510) (domain or fragment)”, the binding result in test [1] was “binds”; in test [2] it was “no binding”; in test [3], “no binding”; in test [4] it was “binds”.
For “HA-tagged Sirt1 core domain, aa 234 to 510 (from UniProt Q96EB6 234-510) (domain or fragment)”, the binding result in test [5] is given as “binds”; in [6] it was “binds”; in [7] it was “no binding”; in test [8] it was “binds”; in test [9], “no binding”.

B1: LKB1, endogenous in C2C12 myotubes (protein, UniProt Q9WTK7 1-436)
chain: MDVADPEPLGLFSEGELMSVGMDTFIHRIDSTEVIYQPRRKRAKLIGKYLMGDLLGEGSYGKVKEVLDSETLCRRAVKILKKKKLRRIPNGEANVKKEIQLLRRLRHRNVIQLVDVLYNEEKQKMYMVMEYCVCGMQEMLDSVPEKRFPVCQAHGYFRQLIDGLEYLHSQGIVHKDIKPGNLLLTTNGTLKISDLGVAEALHPFAVDDTCRTSQGSPAFQPPEIANGLDTFSGFKVDIWSAGVTLYNITTGLYPFEGDNIYKLFENIGRGDFTIPCDCGPPLSDLLRGMLEYEPAKRFSIRQIRQHSWFRKKHPLAEALVPIPPSPDTKDRWRSMTVVPYLEDLHGRAEEEEEEDLFDIEDGIIYTQDFTVPGQVLEEEVGQNGQSHSLPKAVCVNGTEPQLSSKVKPEGRPGTANPARKVCSSNKIRRLSACKQQ
As for B1, the binding result in [10] is “binds”.

B2: STRADα, endogenous in HEK293T cells (protein, UniProt Q7RTN6 1-431)
chain: MSFLVSKPERIRRWVSEKFIVEGLRDLELFGEQPPGDTRRKTNDASSESIASFSKQEVMSSFLPEGGCYELLTVIGKGFEDLMTVNLARYKPTGEYVTVRRINLEACSNEMVTFLQGELHVSKLFNHPNIVPYRATFIADNELWVVTSFMAYGSAKDLICTHFMDGMNELAIAYILQGVLKALDYIHHMGYVHRSVKASHILISVDGKVYLSGLRSNLSMISHGQRQRVVHDFPKYSVKVLPWLSPEVLQQNLQGYDAKSDIYSVGITACELANGHVPFKDMPATQMLLEKLNGTVPCLLDTSTIPAEELTMSPSRSVANSGLSDSLTTSTPRPSNGDSPSHPYHRTFSPHFHHFVEQCLQRNPDARPSASTLLNHSFFKQIKRRASEALPELLRPVTPITNFEGSQSQDHSGIFGLVTNLEELEVDDWEF
B2: the binding result with FLAG-LKB1 was “binds”.

B3: MO25α, endogenous in HEK293T cells (protein, UniProt Q9Y376 1-341)
chain: MPFPFGKSHKSPADIVKNLKESMAVLEKQDISDKKAEKATEEVSKNLVAMKEILYGTNEKEPQTEAVAQLAQELYNSGLLSTLVADLQLIDFEGKKDVAQIFNNILRRQIGTRTPTVEYICTQQNILFMLLKGYESPEIALNCGIMLRECIRHEPLAKIILWSEQFYDFFRYVEMSTFDIASDAFATFKDLLTRHKLLSAEFLEQHYDRFFSEYEKLLHSENYVTKRQSLKLLGELLLDRHNFTIMTKYISKPENLKLMMNLLRDKSRNIQFEAFHVFKVFVANPNKTQPILDILLKNQAKLIEFLSKFQNDRTEDEQFNDEKTYLVKQIRDLKRPAQQEA
As to B3, the binding entry with FLAG-LKB1 is “binds”.
